PubChem BioAssay AID488969 (Vanderbilt High Throughput Screening Facility, 2010)
Over roughly 110,000 compounds, “z-score” has its median near -0.1; the highest 2% begin near 2. Some of the results follow. Activity calls are given as the source filed them.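 The calls were made as follows: active = z-score in the third read window above 3 or below -3; inactive = the rest.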

These compounds were tested against Metabotropic glutamate receptor 8 (Rattus norvegicus) (UniProt P70579) (assay: rat mGluR8 modulators via GIRK flux, primary screen, cell-based, thallium flux, HTS (AID 488969)). Conditions: HEK293 rat mGluR8, GIRK (G protein-gated inwardly rectifying potassium channel) thallium flux, FluoZin2; at 10 µM; stronger effect = higher value; submaximal glutamate (EC20) added with thallium.
Chain of UniProt P70579 (P70579 whole entry, looked up): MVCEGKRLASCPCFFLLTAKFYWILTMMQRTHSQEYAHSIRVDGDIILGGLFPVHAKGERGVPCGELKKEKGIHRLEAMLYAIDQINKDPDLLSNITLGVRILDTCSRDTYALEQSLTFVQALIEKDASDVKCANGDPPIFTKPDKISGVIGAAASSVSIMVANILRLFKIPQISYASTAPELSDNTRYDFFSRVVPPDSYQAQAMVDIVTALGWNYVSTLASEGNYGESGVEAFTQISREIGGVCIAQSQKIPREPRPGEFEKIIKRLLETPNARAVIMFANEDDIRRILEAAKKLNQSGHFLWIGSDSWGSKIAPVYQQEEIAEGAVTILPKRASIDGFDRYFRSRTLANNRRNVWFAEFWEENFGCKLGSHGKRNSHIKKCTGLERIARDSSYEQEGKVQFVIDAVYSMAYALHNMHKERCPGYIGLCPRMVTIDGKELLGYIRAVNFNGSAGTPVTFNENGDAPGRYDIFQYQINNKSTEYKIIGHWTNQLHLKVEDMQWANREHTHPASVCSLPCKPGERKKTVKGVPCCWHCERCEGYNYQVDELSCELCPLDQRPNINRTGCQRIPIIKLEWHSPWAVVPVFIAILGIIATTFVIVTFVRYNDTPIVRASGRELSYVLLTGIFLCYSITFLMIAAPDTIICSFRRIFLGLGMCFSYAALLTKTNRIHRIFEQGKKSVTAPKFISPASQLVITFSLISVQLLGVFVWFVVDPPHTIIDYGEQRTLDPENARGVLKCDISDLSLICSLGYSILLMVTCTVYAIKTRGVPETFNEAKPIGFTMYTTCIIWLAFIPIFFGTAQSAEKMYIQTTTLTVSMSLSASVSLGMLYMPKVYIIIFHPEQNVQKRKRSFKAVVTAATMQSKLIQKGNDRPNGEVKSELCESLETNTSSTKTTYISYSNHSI

| SMILES | z-score |
| --- | --- |
| COC(=O)c1nc2n(n1)C(c1cc(OC)ccc1OC)C(C(=O)OC1CCCCC1)=C(C)N2 (stereo not given) | 0.16 |
| COc1ccccc1C(=O)N1CCN(C(=O)COc2cccc(C)c2)CC1 | -0.231 |
| CCN(CC)CCn1c(NCc2nc3ccccc3n2Cc2ccccc2)nc2ccccc21 | 0.541 |
| COc1cccc(OCCOc2cccc(/C=N/n3cnnc3)c2)c1 | 0.022 |
| CCOC(=O)c1ccc(NC(=O)c2ccccc2)cc1 | -0.0754 |
| COc1ccc2c(c1)CCC(C)N2S(=O)(=O)c1ccc(C2CNC(=O)C2)cc1 (stereo not given) | -0.121 |
| COc1cc(/C=N/NC(N)=S)ccc1OCC(=O)Nc1ccc(C)cc1 | 0.0446 |
| CCOC(=O)c1c(NC(=O)c2noc3c2CCCC3)sc(C)c1C | -0.285 |
| COC(=O)Nc1ccc2c(c1)OCO2 | 1.44 |
| CS(=O)(=O)N(Cc1ccccc1)c1ccc(C(=O)Nc2ccccc2Sc2ccccc2)cc1 | 0.0136 |
| COc1ccc(/C(N)=N/OC(=O)Cc2ccc(C)cc2)cc1OC | -0.247 |
| OC(COc1ccccc1)Cn1c2ccccc2c2ccccc21 (stereo not given) | -0.0732 |
| Cc1cc(SCn2nnc3ccccc3c2=O)nc2ccccc12 | 0.222 |
| C=CCN(c1ccc(C(=O)NCCc2ccccc2)cc1)S(C)(=O)=O | -0.00787 |
| COc1ccc(N2C(=O)c3ccccc3NC2c2ccc(OC)c(CSc3ccccn3)c2)cc1 (stereo not given) | -0.0553 |
| Cc1ccc(-n2nnnc2C(=Cc2ccc(N(C)C)cc2)c2nnnn2-c2ccc(C)cc2)cc1 | -0.0997 |
| O=S(=O)(Nc1ccncc1)c1ccccc1 | 0.126 |
| Cc1ccc(Cn2ccc(NC(=O)c3cc(-c4ccco4)on3)n2)cc1 | 1.09 |
| O=C(NCc1ccccn1)C1CCN(S(=O)(=O)c2ccccc2)CC1 | 0.79 |
| Cc1cccc(-n2c(N)cc(=O)[nH]c2=S)c1C | 0.0226 |
| Cc1ccc2nc(N/N=C/c3ccccc3C#N)nc(-c3ccccc3)c2c1 | -0.305 |
| CCCCOc1nc(N)nc(-c2ccccc2)n1 | -0.634 |
| Cc1ccc(-n2c(SCC(=O)Nc3cccc(S(=O)(=O)NC4=NCCCCC4)c3)nc3ccccc3c2=O)cc1C | -0.262 |
| CN(Cc1ccccc1)C(=O)COC(=O)c1ccccc1Nc1ccccc1 | -0.216 |
| CCC(c1nnc(SCC(=O)Nc2nnc(-c3ccccc3)o2)o1)N(C)C (stereo not given) | -0.0751 |
| Cc1ccc(Oc2ccc(-c3nc(N)nc(N)n3)cc2)cc1C | -0.0713 |
| COCCNC(=O)c1ccccc1-c1ccccc1C(=O)O | 0.465 |
| CC(C)(C)c1ccc(S(=O)(=O)N2C=CC(C(F)(F)F)=NCC2)cc1 | -0.158 |

| SMILES | z-score |
| --- | --- |
| COCCCNC(=O)C1CCCN(S(=O)(=O)c2ccc(C)cc2)C1 (stereo not given) | 0.386 |
| COc1cccc(C2=NOC(C(=O)Nc3ccccc3SC)C2)c1 (stereo not given) | -0.115 |
| CCN(CC)c1ccc(C(=O)O)cc1 | -0.133 |
| Fc1ccccc1-c1nc(N2CCCCC2)c2ccccc2n1 | -0.286 |
| Cc1[nH]n(-c2ccc(F)cc2)c(=O)c1/C=N/c1sc2c(c1C#N)CCCC2 | active: 13 |
| Cc1ccc(S(=O)(=O)NCC(=O)N2CCCCC2)cc1 | -0.17 |
| CC(=O)c1ccc(NC(=S)N(C)C2CCN(C)CC2)cc1 | -0.243 |
| CCNc1nc(NCC)nc(C(=O)Nc2ccccc2)n1 | -0.0479 |
| CC(C)Cc1nnc(NC(=O)c2ccncc2)s1 | -0.47 |
| O=C1CCCC(NCCCCCCNC2=C([N+](=O)[O-])C(=O)CCC2)=C1[N+](=O)[O-] | -0.199 |
| O=C1CCCC2=C1C(c1ccc(Br)cc1)c1c([nH]c(=S)[nH]c1=O)N2 (stereo not given) | 1.4 |
| CCOC(=O)Nc1cc2c(C)cc(=O)oc2cc1C | -0.027 |
| Cc1sc2ncnc(N3CCOCC3)c2c1C | -0.134 |
| O=S(=O)(NCCc1csc(-c2cccnc2)n1)c1ccc2c(c1)OCCO2 | -0.0667 |
| O=C(COC(=O)CCOc1ccccc1)NCc1ccco1 | 0.129 |
| Cc1cc(C)n(-c2nnc(C)n2NS(=O)(=O)c2ccc(F)cc2)n1 | -0.327 |
| CC(=O)c1c(OC(=O)c2ccc(C)cc2)c2ccccc2n1C | 0.478 |
| COCCCNC(=O)COc1ccc(S(=O)(=O)Nc2ccccc2)cc1 | 0.539 |
| c1ccc2c(-c3ccncc3)c[nH]c2c1 | -0.155 |
| CC(C)c1nc(SCc2c(F)cccc2Cl)c2c(=O)n(C)c(=O)n(C)c2n1 | -0.252 |
| Cc1c(NC(=O)CSc2cccc3cccnc23)c(=O)n(-c2ccccc2)n1C | 0.322 |
| COc1cccc(-c2nnc3sc(-c4ccccn4)nn23)c1 | -0.955 |
| CCOC(=O)C(NC(=O)Nc1ccc(F)cc1)(OCC)C(F)(F)F (stereo not given) | 0.0672 |
| CCCc1nnc(SCC(=O)N2CCCCC2)n1CCCOC | 0.239 |
| Cc1cc(N2CCC(C(=O)NC3CC3)CC2)nc(-c2ccccc2)n1 | 1.41 |
| COCCN(CCOC)C(=O)c1sc2nc(-c3ccccc3)cn2c1C | -0.267 |
| Cc1c(C(=O)Oc2cccc3ccccc23)cnn1-c1ccccc1 | -0.188 |
